# The supplement of paper PMC8728848
# This is one part of the list.
# B1: Flo5 (Saccharomyces cerevisiae), P38894 (protein)
# chain: MGSSHHHHHHSSGLVPRGSHMSGATEACLPAGQRKSGMNINFYQYSLKDSSTYSNAAYMAYGYASKTKLGSVGGQTDISIDYNIPCVSSSGTFPCPQEDSYGNWGCKGMGACSNSQGIAYWSTDLFGFYTTPTNVTLEMTGYFLPPQTGSYTFSFATVDDSAILSVGGSIAFECCAQEQPPITSTNFTINGIKPWDGSLPDNITGTVYMYAGYYYPLKVVYSNAVSWGTLPISVELPDGTTVSDNFEGYVYSFDDDLSQSNCTIPDPSIH
# How the values were obtained:
# Assay in all cases: glycan array binding signal (z-score within array); higher = stronger binding
# Details in all cases: glycan notation: IUPAC condensed, linker removed
# [1] = target: Neu5Ac(a2-3)Gal(b1-4)GlcNAc(b1-3)Gal(b1-4)[Fuc(a1-3)]GlcNAc
# Method in brief: (§1)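 Columns mapping to the same glycan were averaged after glycan names were converted to IUPAC-condensed notation. The data come from 3228 arrays in the Consortium for Functional Glycomics database, limited to those with an available protein sequence. Binding is reported as a within-array Z-score averaged across arrays of one protein sequence and across linkers.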
# [2] = target: Neu5Ac(a2-3)Gal(b1-4)GlcNAc(b1-3)GalNAc
# Method in brief: as §1
# [3] = target: Neu5Ac(a2-3)Gal(b1-4)GlcNAc(b1-6)[Gal(b1-3)]GalNAc
# Method in brief: as §1
# [4] = target: Neu5Ac(a2-3)Gal(b1-4)GlcNAc(b1-6)[Neu5Ac(a2-3)Gal(b1-3)]GalNAc
# Method in brief: as §1
# [5] = target: Neu5Ac(a2-3)Gal(b1-4)GlcNAc6S
# Method in brief: as §1
# [6] = target: Neu5Ac(a2-3)Gal(b1-4)[Fuc(a1-3)]GlcNAc
# Method in brief: as §1
# [7] = target: Neu5Ac(a2-3)Gal(b1-4)[Fuc(a1-3)]GlcNAc(b1-3)Gal
# Method in brief: as §1
# [8] = target: Neu5Ac(a2-3)Gal(b1-4)[Fuc(a1-3)]GlcNAc(b1-3)Gal(b1-4)GlcNAc
# Method in brief: as §1
# [9] = target: Neu5Ac(a2-3)Gal(b1-4)[Fuc(a1-3)]GlcNAc(b1-3)Gal(b1-4)[Fuc(a1-3)]GlcNAc(b1-3)Gal(b1-4)[Fuc(a1-3)]GlcNAc
# Method in brief: as §1
# [10] = target: Neu5Ac(a2-3)Gal(b1-4)[Fuc(a1-3)]GlcNAc(b1-6)[Gal(b1-3)]GalNAc
# Method in brief: as §1
# [11] = target: Neu5Ac(a2-3)Gal(b1-4)[Fuc(a1-3)]GlcNAc(b1-6)[Neu5Ac(a2-3)Gal(b1-3)]GalNAc
# Method in brief: as §1
# [12] = target: Neu5Ac(a2-3)Gal(b1-4)[Fuc(a1-3)]GlcNAc6S
# Method in brief: as §1
# [13] = target: Neu5Ac(a2-3)Gal6S(b1-4)GlcNAc
# Method in brief: as §1
# [14] = target: Neu5Ac(a2-3)Gal6S(b1-4)[Fuc(a1-3)]GlcNAc
# Method in brief: as §1
# Neu5Ac(a2-3)GalNAc = target: Neu5Ac(a2-3)GalNAc
# Method in brief: as §1
# [15] = target: Neu5Ac(a2-3)GalNAc(b1-4)GlcNAc
# Method in brief: as §1
# [16] = target: Neu5Ac(a2-3)[GalNAc(b1-4)]Gal(b1-4)Glc
# Method in brief: as §1
# [17] = target: Neu5Ac(a2-3)[GalNAc(b1-4)]Gal(b1-4)GlcNAc
# Method in brief: as §1
# [18] = target: Neu5Ac(a2-3)[Neu5Ac(a2-6)]GalNAc
# Method in brief: as §1
# Neu5Ac(a2-6)Gal = target: Neu5Ac(a2-6)Gal
# Method in brief: as §1
# Neu5Ac(a2-6)Gal(b1-4)Glc = target: Neu5Ac(a2-6)Gal(b1-4)Glc
# Method in brief: as §1
# [19] = target: Neu5Ac(a2-6)Gal(b1-4)GlcNAc
# Method in brief: as §1
# [20] = target: Neu5Ac(a2-6)Gal(b1-4)GlcNAc(b1-2)Man(a1-3)Man(b1-4)GlcNAc(b1-4)GlcNAc
# Method in brief: as §1
# [21] = target: Neu5Ac(a2-6)Gal(b1-4)GlcNAc(b1-2)Man(a1-3)[Gal(b1-4)GlcNAc(b1-2)Man(a1-6)]Man(b1-4)GlcNAc(b1-4)GlcNAc
# Method in brief: as §1
# [22] = target: Neu5Ac(a2-6)Gal(b1-4)GlcNAc(b1-2)Man(a1-3)[GlcNAc(b1-2)Man(a1-6)]Man(b1-4)GlcNAc(b1-4)GlcNAc
# Method in brief: as §1
# [23] = target: Neu5Ac(a2-6)Gal(b1-4)GlcNAc(b1-2)Man(a1-3)[GlcNAc(b1-2)Man(b1-4)GlcNAc(b1-2)Man(a1-6)]Man(b1-4)GlcNAc(b1-4)GlcNAc
# Method in brief: as §1
# [24] = target: Neu5Ac(a2-6)Gal(b1-4)GlcNAc(b1-2)Man(a1-3)[Man(a1-6)]Man(b1-4)GlcNAc(b1-4)GlcNAc
# Method in brief: as §1
# [25] = target: Neu5Ac(a2-6)Gal(b1-4)GlcNAc(b1-2)Man(a1-3)[Neu5Ac(a2-6)Gal(b1-4)GlcNAc(b1-2)Man(a1-6)]Man(b1-4)GlcNAc(b1-4)GlcNAc
# Method in brief: as §1
# [26] = target: Neu5Ac(a2-6)Gal(b1-4)GlcNAc(b1-2)Man(a1-6)Man(b1-4)GlcNAc(b1-4)GlcNAc
# Method in brief: as §1
# [27] = target: Neu5Ac(a2-6)Gal(b1-4)GlcNAc(b1-2)Man(a1-6)[Gal(b1-4)GlcNAc(b1-2)Man(a1-3)]Man(b1-4)GlcNAc(b1-4)GlcNAc
# Method in brief: as §1
# [28] = target: Neu5Ac(a2-6)Gal(b1-4)GlcNAc(b1-2)Man(a1-6)[GlcNAc(b1-2)Man(a1-3)]Man(b1-4)GlcNAc(b1-4)GlcNAc
# Method in brief: as §1
# [29] = target: Neu5Ac(a2-6)Gal(b1-4)GlcNAc(b1-2)Man(a1-6)[Man(a1-3)]Man(b1-4)GlcNAc(b1-4)GlcNAc
# Method in brief: as §1
# [30] = target: Neu5Ac(a2-6)Gal(b1-4)GlcNAc(b1-3)Gal(b1-3)GlcNAc
# Method in brief: as §1
# [31] = target: Neu5Ac(a2-6)Gal(b1-4)GlcNAc(b1-3)Gal(b1-4)GlcNAc
# Method in brief: as §1
# [32] = target: Neu5Ac(a2-6)Gal(b1-4)GlcNAc(b1-3)Gal(b1-4)GlcNAc(b1-3)Gal(b1-4)GlcNAc
# Method in brief: as §1
# [33] = target: Neu5Ac(a2-6)Gal(b1-4)GlcNAc(b1-3)Gal(b1-4)[Fuc(a1-3)]GlcNAc(b1-3)Gal(b1-4)[Fuc(a1-3)]GlcNAc
# Method in brief: as §1
# [34] = target: Neu5Ac(a2-6)Gal(b1-4)GlcNAc(b1-3)GalNAc
# Method in brief: as §1
# [35] = target: Neu5Ac(a2-6)Gal(b1-4)GlcNAc6S
# Method in brief: as §1
binder,measurement,setting,value
B1,glycan array binding signal (z-score),[1],-0.133
same,glycan array binding signal (z-score),[2],0.01
same,glycan array binding signal (z-score),[3],-0.196
same,glycan array binding signal (z-score),[4],-0.244
same,glycan array binding signal (z-score),[5],-0.131
same,glycan array binding signal (z-score),[6],-0.106
same,glycan array binding signal (z-score),[7],-0.199
same,glycan array binding signal (z-score),[8],0.203
same,glycan array binding signal (z-score),[9],-0.127
same,glycan array binding signal (z-score),[10],-0.282
same,glycan array binding signal (z-score),[11],-0.174
same,glycan array binding signal (z-score),[12],-0.134
same,glycan array binding signal (z-score),[13],-0.142
same,glycan array binding signal (z-score),[14],-0.177
same,glycan array binding signal (z-score),Neu5Ac(a2-3)GalNAc,-0.279
same,glycan array binding signal (z-score),[15],-0.104
same,glycan array binding signal (z-score),[16],-0.147
same,glycan array binding signal (z-score),[17],-0.229
same,glycan array binding signal (z-score),[18],-0.18
same,glycan array binding signal (z-score),Neu5Ac(a2-6)Gal,-0.036
same,glycan array binding signal (z-score),Neu5Ac(a2-6)Gal(b1-4)Glc,-0.16
same,glycan array binding signal (z-score),[19],-0.16
same,glycan array binding signal (z-score),[20],-0.031
same,glycan array binding signal (z-score),[21],-0.172
same,glycan array binding signal (z-score),[22],-0.108
same,glycan array binding signal (z-score),[23],-0.094
same,glycan array binding signal (z-score),[24],-0.068
same,glycan array binding signal (z-score),[25],0.258
same,glycan array binding signal (z-score),[26],-0.161
same,glycan array binding signal (z-score),[27],-0.08
same,glycan array binding signal (z-score),[28],-0.106
same,glycan array binding signal (z-score),[29],-0.179
same,glycan array binding signal (z-score),[30],-0.098
same,glycan array binding signal (z-score),[31],-0.264
same,glycan array binding signal (z-score),[32],-0.161
same,glycan array binding signal (z-score),[33],-0.189
same,glycan array binding signal (z-score),[34],-0.202
same,glycan array binding signal (z-score),[35],0.476
